This is one part of the list.
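Note: jurkat cells carrying a lentiviral library of mutant zinc finger degrons fused to EGFP plus mCherry, mCherry+ cells FACS sorted, degron abundance counted by next-generation sequencing.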

For this assay, the target named is no compound (DMSO). In words: log2 fold change of degron read counts, EGFP-low vs EGFP+ sorted cells; higher = lower degron-EGFP level without compound (poor expression or instability). The note with it: compound: DMSO control; 18 h.
On to FICPICGAMFTQKGNLLRHIKL, for which the “log2 fold change of degron read counts” value was found to be 0.627.
Take FFCEICGHSFTQKGNLLRHIKL: the “log2 fold change of degron read counts” value is -0.833.
Turning to FLCNQCGHGFTQKGNLLRHIKL, the “log2 fold change of degron read counts” value is -0.145.
Consider FTCPQCGAQFTQKGNLLRHIKL, for which the “log2 fold change of degron read counts” value is -0.324.
Turning to FGCEICGRSFTQKGNLLRHIKL, the “log2 fold change of degron read counts” value is -1.51.
Regarding FSCEICGAAFTQKGNLLRHIKL, the “log2 fold change of degron read counts” value is -1.57.
Turning to FNCSVCGHIFTQKGNLLRHIKL, the “log2 fold change of degron read counts” value is 0.862.
The result for FMCDVCGASFTQKGNLLRHIKL reads -2.17; that for FYCNQCGRTFTQKGNLLRHIKL, 0.154.
As for LGCEICGFRCTQKGNLLRHIKL, the “log2 fold change of degron read counts” value stood at 0.517.
Take FVCPQCGATFTQKGNLLRHIKL: the “log2 fold change of degron read counts” value is -0.703.
In the case of FHCPICGARFTQKGNLLRHIKL, the “log2 fold change of degron read counts” value is -1.14.
Turning to FACPQCGACFTQKGNLLRHIKL, the “log2 fold change of degron read counts” value is -0.896.
In the case of FQCNQCGRIFTQKGNLLRHIKL, the “log2 fold change of degron read counts” value is -0.349.
Turning to LRCNQCGFNCTQKGNLLRHIKL, the “log2 fold change of degron read counts” value is 0.704.
Turning to FNCEICGRHFTQKGNLLRHIKL, the “log2 fold change of degron read counts” value is -0.83.
Turning to LDCPICGFLCTQKGNLLRHIKL, the “log2 fold change of degron read counts” value was 1.79.
For FTCEVCGANFTQKGNLLRHIKL, the “log2 fold change of degron read counts” value was -2.72.
Consider FMCPICGRKFTQKGNLLRHIKL, for which the “log2 fold change of degron read counts” value was -0.956.
LNCPICGFICTQKGNLLRHIKL: the “log2 fold change of degron read counts” value was 1.05.
FQCPICGRGFTQKGNLLRHIKL: the “log2 fold change of degron read counts” value was 0.455.
In the case of FMCDICGANFTQKGNLLRHIKL, the “log2 fold change of degron read counts” value is -1.55.
The result for FQCDVCGAFFTQKGNLLRHIKL reads -1.39; that for FKCEQCGACFTQKGNLLRHIKL, -1.4.
With FHCEICGRSFTQKGNLLRHIKL, the “log2 fold change of degron read counts” value is -2.49.
For the sequence LACNQCGFGCTQKGNLLRHIKL, the “log2 fold change of degron read counts” value turned out to be 0.814.
For FKCPICGRAFTQKGNLLRHIKL, the “log2 fold change of degron read counts” value is -1.45.
The result for FLCEICGRMFTQKGNLLRHIKL reads -0.776; that for LGCPICGFHCTQKGNLLRHIKL, 1.22.
For the sequence LTCPICGFQCTQKGNLLRHIKL, the “log2 fold change of degron read counts” value is -0.000513.
In the case of FACNQCGAKFTQKGNLLRHIKL, the “log2 fold change of degron read counts” value is -0.714.
Regarding FRCDICGANFTQKGNLLRHIKL, the “log2 fold change of degron read counts” value is -0.963.
Consider FVCEVCGAYFTQKGNLLRHIKL, for which the “log2 fold change of degron read counts” value is -0.548.
For FDCEICGAQFTQKGNLLRHIKL, the “log2 fold change of degron read counts” value was -1.96.
With FRCEICGRCFTQKGNLLRHIKL, the “log2 fold change of degron read counts” value is -2.03.
Regarding FSCDQCGAMFTQKGNLLRHIKL, the “log2 fold change of degron read counts” value is -1.98.
The figure for LWCPICGFNCTQKGNLLRHIKL is 2.46; for FDCNQCGHYFTQKGNLLRHIKL it is 1.22; for FSCNQCGRQFTQKGNLLRHIKL it is -0.788.
The figure for LTCPICGFVCTQKGNLLRHIKL is 0.69.
Consider FFCNQCGRDFTQKGNLLRHIKL, for which the “log2 fold change of degron read counts” value is -0.367.
In the case of FECDVCGAAFTQKGNLLRHIKL, the “log2 fold change of degron read counts” value was -2.17.
FDCSVCGHAFTQKGNLLRHIKL: the “log2 fold change of degron read counts” value was -0.22.
As to FLCDICGADFTQKGNLLRHIKL, the “log2 fold change of degron read counts” value was -2.62.
Turning to FDCPVCGASFTQKGNLLRHIKL, the “log2 fold change of degron read counts” value was -0.683.
For the sequence FMCDICGAWFTQKGNLLRHIKL, the “log2 fold change of degron read counts” value is -0.378.
On to LICEICGFRCTQKGNLLRHIKL, for which the “log2 fold change of degron read counts” value is 0.29.
For the sequence FHCEICGRNFTQKGNLLRHIKL, the “log2 fold change of degron read counts” value was -1.06.
With FVCNQCGHQFTQKGNLLRHIKL, the “log2 fold change of degron read counts” value was -0.375.
In the case of FMCNQCGRVFTQKGNLLRHIKL, the “log2 fold change of degron read counts” value is -0.176.
